Source: PubChem BioAssay AID493208 (National Center for Advancing Translational Sciences (NCATS), 2011)
The campaign covered roughly 44,000 compounds. About 340 (0.77%) were called active. Roughly 5% stayed inconclusive and do not appear here. Calls follow the shape of the dose curve; as a rule, active = well fitted inhibition curve with a large enough effect; inconclusive = small, poorly fitted or top-dose-only effect; inactive = flat fitted curve, though single readings scatter. This is one part of the list.

Assay: Acumen qHTS Assay for Inhibitors of the mTORC1 Signaling Pathway in MEF (Tsc2-/-, p53-/-) Cells: Sytravon;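 also: plate controls were DMSO for no effect and rapamycin for full effect; nearly all actives have a fitted effect of over 50% in size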
Details: phospho-rpS6 immunofluorescence/PI, 24 h; series mostly up to 38.3 µM; activity change, negative = inhibition: at the top concentration
Procedure, shortened: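 Plate MEFs (Tsc2-/-, p53-/-, empty vector) in DMEM/10% FBS; after 24 h add compound, incubate 24 h at 37 degree Celsius; fix in PFA/TX-100, block, stain phospho-rpS6 and 10 uM PI; scan at 488 nm; report % positive cells.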

SMILES	activity change, negative = inhibition
CCc1ccc(NC(=O)c2cccc(N3CCCS3(=O)=O)c2)cc1	inactive: -3.64%
Cc1ccc(NC(=O)CN2C(=O)C(c3ccc(C)cc3)=NC23CCCCCC3)cc1	inactive: -0.669%
Cc1ccc(C)c(N2CCN(C(=O)CCS(=O)(=O)c3ccc4c(c3)oc(=O)n4C)CC2)c1	inactive: -16.9%
COc1ccc2c(c1)c(=O)c(S(=O)(=O)c1ccc(Cl)cc1)cn2Cc1cc(C)ccc1C	inactive: -9.5%
CCOc1cc2c(cc1OCC)C(CC(=O)OC)N(C(=O)Nc1cc(OC)ccc1OC)CC2 (configuration not stated)	inactive: 3.12%
CCN(CC)C(=O)c1sc2c(c1C)c(=O)n(CCc1ccccc1)c(=O)n2Cc1ccc(C)cc1	inactive: -7.05%
CCN1CCSc2ccc(C(=O)NCc3ccc(F)cc3)cc21	inactive: -7.68%
Cc1ccc(CNC(=O)CCSCc2cnn(-c3ccccc3)c2-n2cccc2)cc1	inactive: -0.621%
COc1ccc(NCc2cccn2-c2nnc(N3CCOCC3)s2)cc1OC	inactive: 5.94%
COc1ccc(CNC(=O)Cn2ncc3c(=O)oc4ccccc4c32)c(OC)c1	inactive: -7.78%
Cc1csc2nc(COC(=O)c3cccc(NC(=O)COc4ccccc4Cl)c3)cc(=O)n12	inactive: 0%
CCc1cccc(NC(=O)Cc2nc(-c3ccc(OC)cc3)no2)c1	inactive: -7.86%
COCCCNC(=O)c1nn(C)c2c1CS(=O)(=O)c1ccccc1-2	inactive: -18.4%
COC(=O)CCCn1c(-c2ccc(C)cc2)c(C)n2c3c(=O)n(C)c(=O)n(C)c3nc12	inactive: -2.6%
COc1ccc(CNC(=O)CC2N=C3c4ccccc4N=C(SCC(=O)Nc4ccc(C(C)C)cc4)N3C2=O)cc1 (configuration not stated)	inactive: -0.563%
COc1ccc(-c2cn3c(n2)sc2cc(C(=O)NC(C)C45CC6CC(CC(C6)C4)C5)ccc23)cc1 (configuration not stated)	inactive: 6.05%
COCc1cc(C)nc2sc3c(c12)NC(c1ccccc1C(=O)O)N(c1cccc(C(F)(F)F)c1)C3=O (configuration not stated)	inactive: -19.2%
COc1cc([N+](=O)[O-])ccc1NC(=O)c1nc2ccccc2n(C)c1=O	inactive: -1.07%
Cc1ccc(S(=O)(=O)c2nc(-c3cccc(Br)c3)oc2N2CCCCCC2)cc1	inactive: -7.48%
O=C(CSc1nnc2[nH]c(=O)cc(-c3ccccc3)n12)Nc1ccc(OC(F)(F)F)cc1	inactive: 3.14%
CCn1ccc2c(OCC(=O)Nc3ccc(C)c(Cl)c3)cccc2c1=O	inactive: -0.412%
COc1cccc(N2CCN(C(=O)CCSCc3ccccc3F)CC2)c1	inactive: 12.5%
CCOC(=O)C1CCN(S(=O)(=O)c2cc3c4c(c2)C(C)C(=O)N4CCC3)CC1 (configuration not stated)	inactive: -1.26%

SMILES	activity change, negative = inhibition
Cc1cccc(C(=O)Nc2c(C(=O)N3CCN(c4ccc(F)cc4)CC3)oc3ccccc23)c1	inactive: 3.4%
O=C(Cc1ccc(Cl)cc1)NCC(c1cccs1)S(=O)(=O)c1ccccc1 (configuration not stated)	inactive: -6.42%
CCCSc1ncc(Cl)c(C(=O)Nc2sc(C(C)=O)c(C)c2C(=O)OCC)n1	inactive: 7.41%
Cc1cc(=O)n(Cc2c(F)cccc2Cl)c2c1c(C)nn2-c1cccc(F)c1	inactive: 0.851%
Cc1ccc(S(=O)(=O)N(CC(=O)Nc2ccc(F)cc2F)Cc2ccc(F)cc2)cc1	inactive: -21.7%
CC(=O)Nc1ccc(NC(=O)c2cc(CN3CCCC3)on2)cc1	inactive: -4.65%
Cc1ccc(C)c(NC(=O)CSc2nnc3[nH]c(=O)cc(-c4ccccc4)n23)c1	inactive: 0.365%
COc1cc(C(=O)NC(c2ccccc2Cl)c2cc(Cl)c3cccnc3c2O)cc(OC)c1OC (configuration not stated)	inactive: -20.3%
COc1ccccc1C(=O)Nc1cccc(C(=O)OCc2cc(=O)n3c4c(sc3n2)CCCC4)c1	inactive: 0%
CCOc1ccc(NC(=O)Cn2c(=O)n(CC3CCC(C(=O)NCCc4ccccc4)CC3)c(=O)c3ccccc32)cc1 (configuration not stated)	inactive: 7.72%
COc1ccc(NC(=O)CSc2oc(-c3ccco3)nc2S(=O)(=O)c2ccc(C)cc2)c(OC)c1	inactive: -0.875%
CN(C)S(=O)(=O)c1ccc2c(c1)N(CC(=O)Nc1cccc(C(F)(F)F)c1)C(=O)CS2	inactive: 8.39%
Cc1c(CNC(C)CCc2ccccc2)c(C(=O)O)c(C)n1Cc1ccc(F)cc1 (configuration not stated)	inactive: -0.39%
CCOC(=O)c1ccccc1NC(=O)NCc1c(-n2cccc2)sc2c1CCCC2	inactive: 2.58%
CCOc1ccc(NC(=O)C(CC(C)C)N2Cc3ccccc3C2=O)cc1 (configuration not stated)	inactive: -15%
CC(C)(C)OC(=O)N1CCC(N2CCN(Cc3ccccc3)C(=O)C2=O)CC1	inactive: 14.8%
Cc1onc(-c2ccccc2Cl)c1C(=O)Oc1ccccc1F	inactive: 11.2%
COc1cccc(C2c3c(oc4cc(C)cc(C)c4c3=O)C(=O)N2CCc2ccc(OC)c(OC)c2)c1 (configuration not stated)	inactive: -8.46%
CCCc1cc(=O)n2c(C(=O)Nc3ccc(OCC)cc3)c(C(=O)Nc3ccc(C)cc3)sc2n1	inactive: -0.132%
COc1ccccc1CNC(=O)CCC1N=C2c3ccccc3N=C(SCC(=O)Nc3ccc(F)cc3)N2C1=O (configuration not stated)	inactive: -5.98%
Cc1ccc2c(c1)c1c(c(=O)n(-c3cccc(Cl)c3)c(=O)n1CC(=O)NCCC1=CCCCC1)n2C	inactive: 3.6%
CCn1c(SCc2ccccc2C)nc(=O)c2c(C(=O)OC)cc(C3CC3)nc21	inactive: -18.6%
CN(CC(=O)NCc1ccc(Cl)cc1)S(=O)(=O)c1ccc2[nH]c3c(c2c1)CCCC3	inactive: -3.36%

SMILES	activity change, negative = inhibition
COc1ccc(CNc2nc(-c3ccccc3)nn2S(=O)(=O)c2ccccc2)cc1	inactive: 11.6%
CCOC(=O)C1CCC(CN(Cc2ccc(OC)cc2)S(=O)(=O)c2ccc(F)c(C(=O)Nc3ccc(C)c(C)c3)c2)CC1 (configuration not stated)	inactive: 15.3%
COc1ccc(-n2c(Cc3ccccc3)nnc2SCc2nc(-c3cccs3)no2)cc1	inactive: 6.44%
O=c1cc(CSc2ncn[nH]2)[nH]c2ccc(F)cc12	inactive: -9.22%
CN(C)C1(CNC(=O)COc2ccc([N+](=O)[O-])cc2)CCCCC1	inactive: -7.02%
CCN(CC)S(=O)(=O)c1ccc2c(c1)N(CC(=O)N1CCN(c3cccc(Cl)c3)CC1)C(=O)CO2	inactive: -7.11%
CCC1CN(C(=O)N2CCC(C(=O)NCCc3cc(OC)ccc3OC)CC2)c2ccccc2O1 (configuration not stated)	inactive: 0.521%
CCN(C(=O)Cn1c(=O)n(CCCS(=O)(=O)C2CCCCC2)c(=O)c2ccccc21)c1cccc(C)c1	inactive: -3.99%
COc1cccc(-n2cc(C(=O)Nc3cccc(C(F)(F)F)c3)c3ccccc3c2=O)c1	inactive: 7.97%
CC(C)Oc1ccc(CNC(=O)c2ccc(CS(=O)c3cccc(Cl)c3)o2)cc1 (configuration not stated)	inactive: -8.02%
COc1ccccc1N1CCN(C(=O)Cn2ncc3ccsc3c2=O)CC1	inactive: 10.9%
Cc1ccc(NC(=O)N2CCc3cc(S(=O)(=O)N4CCC(C)CC4)ccc32)cc1	inactive: -1.18%
CC1CCN(C(=O)Cn2c(=O)n(CCCCCC(=O)NCc3ccccc3Cl)c(=O)c3sccc32)CC1	inactive: 0.119%
CC(=O)Nc1cc(-c2nc3cc(Cl)ccc3o2)ccc1C	inactive: 0.167%
Cc1ccc(Cl)cc1Nc1nn2c(=O)c3ccc(C(=O)Nc4ccc(F)cc4)cc3nc2s1	inactive: -0.483%
Cc1cc(Cl)ccc1NC(=O)Cn1nc(C)c2c(C)n(-c3ccccc3)nc2c1=O	inactive: 0.532%
CC1=C(C(=O)Nc2ccccc2)C(c2ccccc2C)n2nc(SCC(=O)c3ccc(C)cc3)nc2N1 (configuration not stated)	inactive: -0.155%
COCCCNc1nc2c(S(=O)(=O)c3ccccc3)nnn2c2ccc(Cl)cc12	inactive: -1.44%
O=C(NCc1cccs1)c1nn(-c2ccccc2Cl)nc1CO	inactive: 2.23%
Cc1[nH]n(-c2ccccc2)c(=O)c1C(c1cc(Cl)ccc1O)c1c(C)[nH]n(-c2ccccc2)c1=O	inactive: 14.2%
CCOC(=O)c1ccccc1NC(=O)N1CCN(Cc2cc(=O)n3nc(-c4ccccc4)sc3n2)CC1	inactive: 0%
CCOc1ccc(-c2cc(CCCC(=O)NCCc3ccc(Cl)cc3)no2)cc1	inactive: -0.321%
O=C(NCCc1csc(-c2ccc(C(F)(F)F)cc2)n1)c1ccc(F)c(F)c1	inactive: -22.5%

SMILES	activity change, negative = inhibition
Cc1cccc(NC(=O)CSc2nc(-c3cccs3)cc(C(F)(F)F)c2C#N)c1C	inactive: -20.1%
COC(=O)c1c(-c2cccs2)csc1NC(=O)c1cccc(Cl)c1	inactive: -7.98%
COC(=O)c1c(-c2cccs2)csc1NC(=O)c1ccc(Br)cc1	inactive: 1.71%
CCN(c1cccc(C)c1)S(=O)(=O)c1ccc(-n2cccn2)cc1	inactive: -8.75%
CCc1ccc(NC(=O)CCS(=O)(=O)c2cc3c(cc2Cl)NC(=O)CO3)cc1	inactive: 7.87%
CCN(c1ccccc1)S(=O)(=O)c1cc(Br)cc2c1N(C(=O)C1CC1)CC2	inactive: -15.4%
Cc1ccc(-c2cc(C(=O)NCc3cnn(C)c3C)c3ccccc3n2)cc1C	inactive: -6.73%
Cc1ccc(C(=O)N2CCc3cc(CNC(=O)CSc4ccccc4)ccc32)cc1	inactive: -13.5%
N#Cc1ccc(S(=O)(=O)N2CCC(Oc3cccc(C(F)(F)F)c3)CC2)cc1	inactive: -11.3%
COc1ccc(CNC(=O)C(=O)Nc2c3c(nn2-c2ccccc2)CSC3)cc1	inactive: -1.98%
COc1cc(OC)c(OC)cc1CN1CCc2nc(Nc3ccc4c(c3)OCCO4)ncc2C1	inactive: 17.7%
CCCNC(=O)C1=CC(c2ccc3c(c2)OCO3)=NS(=O)(=O)N1C	inactive: 1.6%
Cn1c(=O)c2c(nc(N3CCOCC3)n2Cc2cccc(Br)c2)n(C)c1=O	inactive: -2.44%
Cc1ccccc1CNC(=O)Cc1ccc(NC(=O)N2CCCCc3ccccc32)cc1	inactive: -3.97%
COc1ccc(N2CCN(C(CNC(=O)C(=O)NCc3cccnc3)c3cccnc3)CC2)cc1 (configuration not stated)	inactive: -1.57%
CCOc1ccc(C(=O)c2cn(CC(=O)Nc3cccc(OC)c3)c3cc4c(cc3c2=O)OCCO4)cc1	inactive: -6.57%
Cc1nn2c(-c3ccco3)ccnc2c1-c1ccc(Br)cc1	inactive: 2.16%
Cc1ccc(-c2cc(N)n(-c3ccc(C)cc3)n2)cc1	inactive: 4.53%
Cc1c(C(=O)N2CCCCC2)c(S(=O)(=O)NCc2ccc(N(C)C)cc2)c(C)n1C	inactive: -2.9%
COc1ccccc1CNC(=O)C(C)n1ccc2cc(S(=O)(=O)N3CCCC3)ccc21 (configuration not stated)	inactive: -12.8%
COc1ccc(CNC(=O)c2ccc3nc(CCc4ccccc4)oc3c2)cc1	inactive: -0.0022%
Cc1ccc(-c2[nH]c3c(c2-c2c(-n4cccc4)n(C)c(=O)[nH]c2=O)c(=O)[nH]c(=O)n3C)cc1	inactive: -10.5%
CCOC(=O)c1c(C)oc2nc(C)nc(N3CCN(c4ccccc4F)CC3)c12	inactive: -4.22%
